Experimental data from patent US20100113370A1, “METHODS AND COMPOUNDS FOR MODULATING INFLAMMATORY PROCESSES” (priority 2007, published 2010).
One block for each compound: values may come before it.

Tests used:
ABCC4 [1] = biological target: T1, ABCC4 (Homo sapiens, UniProt O15439); settings: for inhibition of ATP-dependent [^3H]LTB4 transport (in words) / inhibition of ATP-dependent [^3H]LTB4 transport: 1 μM, presence of GSH; for inhibition of ATP-dependent [^3H]LTB4 transport: V79-ABCC4 vesicles
T1 sequence (O15439 1-1325): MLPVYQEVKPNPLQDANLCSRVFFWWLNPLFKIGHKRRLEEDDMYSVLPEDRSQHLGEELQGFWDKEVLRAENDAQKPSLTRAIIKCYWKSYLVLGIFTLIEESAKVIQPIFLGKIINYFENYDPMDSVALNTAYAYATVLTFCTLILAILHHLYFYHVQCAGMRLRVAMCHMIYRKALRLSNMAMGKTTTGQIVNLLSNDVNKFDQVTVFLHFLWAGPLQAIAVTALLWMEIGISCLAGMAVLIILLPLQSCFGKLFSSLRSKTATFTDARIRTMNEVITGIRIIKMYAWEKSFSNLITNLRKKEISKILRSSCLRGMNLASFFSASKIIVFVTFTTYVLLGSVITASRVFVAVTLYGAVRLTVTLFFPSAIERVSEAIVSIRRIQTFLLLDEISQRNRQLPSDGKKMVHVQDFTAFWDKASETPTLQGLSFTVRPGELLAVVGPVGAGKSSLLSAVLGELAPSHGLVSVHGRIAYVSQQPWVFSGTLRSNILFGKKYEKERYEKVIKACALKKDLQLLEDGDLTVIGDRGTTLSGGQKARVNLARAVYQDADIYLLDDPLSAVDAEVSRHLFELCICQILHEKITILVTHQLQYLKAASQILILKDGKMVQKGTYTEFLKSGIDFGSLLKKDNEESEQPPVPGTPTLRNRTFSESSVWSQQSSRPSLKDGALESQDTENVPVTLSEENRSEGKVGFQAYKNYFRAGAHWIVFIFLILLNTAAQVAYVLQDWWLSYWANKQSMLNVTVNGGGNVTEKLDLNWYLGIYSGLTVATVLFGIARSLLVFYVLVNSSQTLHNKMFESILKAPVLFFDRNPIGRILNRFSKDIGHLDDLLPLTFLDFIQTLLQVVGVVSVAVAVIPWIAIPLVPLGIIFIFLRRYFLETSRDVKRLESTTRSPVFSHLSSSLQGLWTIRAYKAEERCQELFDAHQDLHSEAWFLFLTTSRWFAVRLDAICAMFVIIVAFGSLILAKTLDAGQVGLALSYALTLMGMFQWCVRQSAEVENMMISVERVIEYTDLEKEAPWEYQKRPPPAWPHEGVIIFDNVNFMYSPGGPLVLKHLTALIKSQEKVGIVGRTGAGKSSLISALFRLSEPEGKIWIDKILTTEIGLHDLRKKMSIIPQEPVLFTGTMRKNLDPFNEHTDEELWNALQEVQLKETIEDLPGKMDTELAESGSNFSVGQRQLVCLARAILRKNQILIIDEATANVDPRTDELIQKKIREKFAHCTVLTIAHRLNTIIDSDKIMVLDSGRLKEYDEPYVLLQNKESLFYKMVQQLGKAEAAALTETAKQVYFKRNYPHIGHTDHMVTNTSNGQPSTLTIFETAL

ABCC4 [2] = biological target: T1, ABCC4; assay: ATP-dependent substrate transport and kinetic analysis in membrane vesicles from V79 cells with recombinant ABCC4; assay type: biochemical; parameters: expressed in transfected cells; host or cells: Chinese hamster lung V79 fibroblasts (V79-ABCC4), inside-out membrane vesicles; settings: vesicles from V79-ABCC4; constant 100 nM LTB4, GSH 1 to 10 mM; read-out: Km value of GSH for ABCC4
ABCC4 [3] = biological target: T1, ABCC4; assay: ATP-dependent substrate transport and kinetic analysis in plasma membrane vesicles from human platelets (endogenous ABCC4); settings: read-out: Km value for ABCC4 (LTB4 transport); vesicles from human platelets; 0.1 to 1 μM LTB4, 5 mM GSH

- inhibition of ATP-dependent [^3H]LTB4 transport (in words) (ABCC4 [1]): did not cause a significant inhibition
Structure (SMILES): CCCCCC=CCC=CCC=CC=CC(O)CCCC(=O)O (stereo not shown) [5-Hydroxy-6,8,11,14-eicosatetraenoate]

- inhibition of ATP-dependent [^3H]LTB4 transport (in words) (ABCC4 [1]): did not cause a significant inhibition
Structure (SMILES): CCCCCC=CCC(O)C=CC=CCC=CCCCC(=O)O (stereo not shown) [12-Hydroxy-5,8,10,14-eicosatetraenoate, 12-hydroxy-5,8,10,14-eicosatetraenoate]

- Km (ABCC4 [2]): 1100 ± 200 µM
Structure (SMILES): N[C@@H](CCC(=O)N[C@@H](CS)C(=O)NCC(=O)O)C(=O)O [GSH, reduced glutathione]

- Km (ABCC4 [3]): 5.6 ± 0.6 µM
Structure (SMILES): CCCCC/C=C\C[C@@H](O)/C=C/C=C/C=C\[C@@H](O)CCCC(=O)O [LTB4, Leukotriene B4]

- inhibition of ATP-dependent [^3H]LTB4 transport (ABCC4 [1]): 61%
Structure (SMILES): CCCCC/C=C\C\C=C/C=C/C=C/[C@@H](SC[C@H](NC(=O)CC[C@H](N)C(=O)O)C(=O)NCC(=O)O)[C@@H](O)CCCC(=O)O [LTC4, leukotriene C4]

- inhibition of ATP-dependent [^3H]LTB4 transport (ABCC4 [1]): 33%
Structure (SMILES): CCCCC/C=C\C\C=C/C=C/C=C/[C@@H](SC[C@H](N)C(=O)NCC(=O)O)[C@@H](O)CCCC(=O)O [LTD4, leukotriene D4]

- inhibition at 10 µM (ABCC4 [1]; read-out: inhibition of ATP-dependent [^3H]LTB4 transport): 74%
Structure (SMILES): CCCCCCCCCCSC[C@H](NC(=O)CC[C@H](N)C(=O)O)C(=O)NCC(=O)O [S-Decyl GSH, S-decyl glutathione]
